Results: PubChem BioAssay AID686971 (National Center for Advancing Translational Sciences (NCATS), 2013)
The whole screen tested about 360,000 compounds, of which about 7,500 (2.1%) were called active. The inconclusive results got no clear call from the source; some entries with a clear call stand among them for comparison. The call rests on the fitted dose curve; in most records, active means well fitted cell-killing curve with a large enough effect; inconclusive means small, poorly fitted or top-dose-only effect, or effect the other way, or another doubt; inactive means no such curve, though single readings can be large or run the other way. No potency is given beside an inconclusive call; the fits are too rough.

Assay: qHTS for induction of synthetic lethality in tumor cells producing 2HG: qHTS for the HT-1080-IDH1KD cell line;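 on activity, negative = toxicity: 0% = DMSO wells and -100% = cell-free medium wells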
Conditions: HT-1080 IDH1 knockdown viability, ATP luminescence, 48 h; activity, negative = toxicity: at 46.1 µM (top of the series) unless noted
Outline: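 HT-1080-IDH1KD cells (IDH1 knocked down), 750/well in RPMI with 5% FBS, treated with compound 48 h at 37 degrees C. Viability by CellTiter-Glo luminescence, normalised to DMSO and no-cell wells; concentration-response curves classed.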
Potency means the concentration at half of the fitted maximal effect; tags describe the fitted curve by direction and shape.

Structure (SMILES) | activity, negative = toxicity | Potency
COCCCN1C(=O)C(=O)/C(=C(/O)c2ccc(S(=O)(=O)N3CCOCC3)cc2)C1c1ccc(OC)cc1 (configuration not stated) | inactive: 10.9% | –
O=c1[nH]c(SCc2ccc(Cl)cc2)nc2[nH]ncc12 | – | inconclusive [cytotoxic, single point]
CC1=CC(=O)C=C(C)C1=NOS(=O)(=O)c1ccccc1 | – | active: 20.6 µM
O=C(c1ccc(OC2CCN(C/C=C/c3ccc(F)cc3)CC2)cc1)N1CCCC1 | – | inconclusive [cytotoxic, single point]
CCCCCCCCCCn1c2c(c(=N)c3c1CCC3)CCC2 | – | inconclusive [cytotoxic, full curve, poor fit]
Cc1nc(SC(C(N)=O)c2ccccc2)c(C#N)c(C)c1C (configuration not stated) | inactive: -16.3% | –
Cc1ccc(Nc2nc(NCC3CC3)nc3ccsc23)c(C)c1 | – | active: 6.51 µM
Cc1ccnc(NC(=O)c2ccc(S(=O)(=O)NCc3ccco3)cc2)c1 | – | inconclusive [cytotoxic, single point]
CN1C/C(=C\c2ccc(N3CCOCC3)cc2)C(=O)/C(=C/c2ccc(N3CCOCC3)cc2)C1 | – | inconclusive [cytotoxic, partial curve]
Cc1cccc(CS(=O)(=O)c2ncc(Cl)c(C(=O)Nc3ccc(F)cc3)n2)c1 | – | active: 16.4 µM
COc1cc(C(CCN2CCCC(C)C2)c2c(OC)cc(OC)c3c(-c4ccccc4)cc(=O)oc23)cc(OC)c1OC (configuration not stated) | – | inconclusive [cytotoxic, single point]
O=C(Nc1ccccn1)c1cc2ccccc2o1 | – | inconclusive [cytotoxic, single point]
CCOc1ccccc1NC(=O)CN(c1ccc(OC)cc1)S(=O)(=O)c1c(C)noc1C | – | active: 5.17 µM
CC(NC(=O)OCc1ccccc1)C(=O)Oc1cc2oc(=O)cc(-c3ccccc3)c2cc1Cl (configuration not stated) | inactive: -6.1% | –
O=C(Nc1ccc(O)cc1)c1ccc(NC(=O)C2CCCO2)cc1 (configuration not stated) | – | inconclusive [cytotoxic, partial curve]
CC(=O)c1cccc(Nc2c3c(nc4ccccc24)CCC3)c1 | – | active: 2.59 µM
CCCn1c(NC(=O)c2ccccc2Br)nc2ccccc21 | inconclusive: -33.8% [cytotoxic] | –
COc1cccc(-c2cccc(-c3nc(C(=O)NCc4ccc5c(c4)OCO5)cc4c3[C@H](CCO)N(S(=O)C(C)(C)C)C4)c2)c1 (some centres not stated) | – | inconclusive [cytotoxic, single point]
COc1ccc(C=O)cc1COc1ccccc1F | – | inconclusive [cytotoxic, single point]
Cc1cc(C)c(C)c(S(=O)(=O)N2CCC(C(=O)N3CCN(c4ccc(F)cc4)CC3)CC2)c1C | inactive: -0.416% | –
O=C(Nc1cc(S(=O)(=O)Nc2ccc(Cl)cc2)ccc1O)c1ccc(S(=O)(=O)N2CCCCCC2)cc1 | – | inconclusive [cytotoxic, single point]
CCOc1ccc(S(=O)(=O)N2CCCC(C(=O)Nc3cc(C)cc(C)c3)C2)cc1 (configuration not stated) | – | inconclusive [cytotoxic, full curve, poor fit]
Cc1ccc(-c2cc(C(=O)NCc3ccccn3)c3ccccc3n2)cc1C | – | inconclusive [cytotoxic, partial curve]
COC(=O)C(Nc1ccccc1Cl)(c1cc(C)c(O)c(C)c1)C(F)(F)F (configuration not stated) | – | inconclusive [cytotoxic, single point]

Structure (SMILES) | activity, negative = toxicity | Potency
OC(c1ccc(F)cc1)c1nc(-c2ccc(F)c(Cl)c2)cs1 (configuration not stated) | – | inconclusive [cytotoxic, single point]
COc1nc(N)nc(NC(=O)c2cccs2)c1N=O | – | active: 18.4 µM
O=C(Nc1ccc(F)cc1)Nc1nnc(COc2ccccc2F)s1 | – | active: 14.6 µM
COc1ccccc1NC(=O)CN1CCC(C(=O)c2ccc(F)cc2)CC1 | inactive: -3.5% | –
COc1ccc(-c2[nH]c(-c3ccc(C)cc3)nc2SCC(=O)NCc2ccco2)cc1OC | inactive: -2.55% | –
CNc1ncnc2c1ncn2[C@H]1CN(Cc2ccccc2)C[C@@H](CO)O1 | – | inconclusive [rising, single point]
CC(C)C1C(=O)N(Cc2cn(CC3CCCCC3)nn2)CCS(=O)(=O)N1Cc1ccc(-c2ccccc2)cc1 (configuration not stated) | – | inconclusive [cytotoxic, partial curve]
CCC1=Nc2cc(C(=O)NCCCOC)ccc2Sc2ccccc21 | – | active: 1.03 µM
Cc1cc(=S)n(-c2ccccc2)n1C | inactive: 14.3% | –
Nc1nc(=S)c2ncn(C3OC(CO)CC3O)c2[nH]1 (configuration not stated) | – | inconclusive [cytotoxic, single point]
CC(=NCCc1c(C)[nH]c2ccc(C)cc12)C1=C(O)CC(c2ccccc2)CC1=O (configuration not stated) | – | active: 8.2 µM
CCN(C(=O)COC(=O)c1ccccc1NCCO)c1cccc2ccccc12 | inactive: 2.19% | –
COc1cc(OC)c(N(C)S(=O)(=O)c2cccc(C(=O)NCc3cccs3)c2)cc1Cl | inactive: -12.8% | –
Cc1cc(C(=O)Cn2ncc(Cl)c(Cl)c2=O)c(C)n1CC(F)(F)F | – | active: 5.8 µM
C=C(C(=O)c1ccccc1)C(CC(=O)c1ccccc1)c1ccccc1 (configuration not stated) | – | active: 11.6 µM
CCCCC1Cc2[nH]c(=S)[nH]c(=O)c2C(C(C)C)O1 (configuration not stated) | inactive: -8.85% | –
COc1cccc2sc3cc(C#CC4(O)CCCCC4)ccc3c(=O)c12 | – | inconclusive [cytotoxic, single point]
O=C1c2ccccc2-c2nc3ccccc3cc21 | inactive: -12.5% | –
Cc1cccc2nc(-c3cccc(NC(=O)c4ccc(Cl)cc4)c3)cn12 | inactive: -22.6% | –
CN(C)CCNc1ncnc2c1sc1nc(N3CCCC3)c3c(c12)CC(C)(C)OC3 | – | active: 20.6 µM
CC(O)(c1ccccc1)c1nc(-c2csc3ccccc23)cs1 (configuration not stated) | – | inconclusive [cytotoxic, single point]
O=C(/C=C/c1cccs1)N1CCC2(CC1)Oc1ccc(Cl)cc1C(=O)C21CC(c2cccnc2)=NO1 (configuration not stated) | – | inconclusive [cytotoxic, single point]
COCCN1C[C@@H](CO)O[C@@H](n2cnc3c(NCC(C)C)ncnc32)C1 | – | inconclusive [rising, single point]
